Data taken from article PMC5931534, “Non-canonical activation of DAPK2 by AMPK constitutes a new pathway linking metabolic stress to autophagy” (Nature Communications, 2018).

Biological target: T1, Bcl-XL-L1 (human (cDNA library from HEK293 cells), UniProt Q07817-1)
T1 construct: Bcl-XL, amplified from a cDNA library of HEK293 cells and cloned into a Gaussia luciferase plasmid (GLuc(1)-X or X-GLuc(1)); source: HEK293T, transfected, in lysate
Assay: split reporter (BiFC, NanoBiT); Protein Complementation Assay: Gaussia luciferase fragments L1 (amino acids 1-93) and L2 (94-169) fused to the two proteins, transfected in pairs into HEK293T cells; cells lysed and luminescence measured
Settings: partners not purified

- fold decrease of luminescence signal against Beclin-1 WT: ~5 fold
B1: Beclin-1-L2 T119E (natural protein)
chain: not shown
notes: Beclin-1 from a cDNA library of HEK293 cells, in the X-GLuc(2) plasmid, with the phospho-mimicking point mutation T119E in the BH3 domain; also called T119E mutant; source: HEK293T, transfected, in lysate; not shown: Gaussia luciferase fragment L2 ([…]), C-terminal, kept
